The structures appear in SMILES notation. Hit rate of the full screen: of about 310,000 compounds, about 2,200 (0.71%) showed an effect of 50% or more. Effects have a minus sign here. Some of the results follow.

The assay deals with human ether-à-go-go-related gene (hERG) potassium channel (human, UniProt Q12809). As to the kind of experiment: primary screen, population patch clamp on CHO cells stably expressing hERG.
human ether-à-go-go-related gene (hERG) potassium channel, sequence (Q12809 whole entry, looked up): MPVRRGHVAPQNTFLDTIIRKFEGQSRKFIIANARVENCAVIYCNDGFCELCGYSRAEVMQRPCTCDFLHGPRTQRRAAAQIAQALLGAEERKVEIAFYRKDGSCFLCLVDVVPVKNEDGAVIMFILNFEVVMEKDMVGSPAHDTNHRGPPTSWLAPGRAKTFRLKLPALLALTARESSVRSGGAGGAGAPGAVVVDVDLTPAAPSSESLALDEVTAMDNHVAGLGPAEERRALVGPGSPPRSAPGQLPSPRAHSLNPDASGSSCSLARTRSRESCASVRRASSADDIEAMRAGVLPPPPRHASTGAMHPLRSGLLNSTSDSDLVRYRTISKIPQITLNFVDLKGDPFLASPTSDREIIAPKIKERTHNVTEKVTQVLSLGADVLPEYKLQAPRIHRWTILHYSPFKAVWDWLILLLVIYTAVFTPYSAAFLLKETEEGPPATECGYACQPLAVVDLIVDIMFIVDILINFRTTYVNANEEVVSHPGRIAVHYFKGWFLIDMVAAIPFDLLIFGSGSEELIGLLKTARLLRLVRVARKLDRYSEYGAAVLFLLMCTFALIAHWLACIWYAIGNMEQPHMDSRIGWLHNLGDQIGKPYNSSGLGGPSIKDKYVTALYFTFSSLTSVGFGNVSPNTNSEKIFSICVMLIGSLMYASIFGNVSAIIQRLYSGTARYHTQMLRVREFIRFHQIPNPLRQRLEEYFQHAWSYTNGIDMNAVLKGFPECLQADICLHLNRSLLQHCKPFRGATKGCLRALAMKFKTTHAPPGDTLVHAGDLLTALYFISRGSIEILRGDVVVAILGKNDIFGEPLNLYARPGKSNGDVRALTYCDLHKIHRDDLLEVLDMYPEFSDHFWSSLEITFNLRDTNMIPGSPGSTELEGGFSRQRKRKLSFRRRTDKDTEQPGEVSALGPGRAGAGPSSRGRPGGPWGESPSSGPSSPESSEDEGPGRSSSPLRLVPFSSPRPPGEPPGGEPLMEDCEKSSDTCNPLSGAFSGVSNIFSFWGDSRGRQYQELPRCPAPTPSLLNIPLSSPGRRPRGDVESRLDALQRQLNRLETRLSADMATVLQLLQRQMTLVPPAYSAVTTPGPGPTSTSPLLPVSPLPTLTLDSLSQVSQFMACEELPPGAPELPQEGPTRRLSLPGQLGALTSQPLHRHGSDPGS
With `CC1(C)Cc2cccc(OCC(=O)N3CCN(S(=O)(=O)c4ccccc4F)CC3)c2O1`, the “hERG current change (%, negative = inhibition) at 1uM” value was determined as 1.82%. For `COc1ccc(NS(=O)(=O)c2cc(NC(=O)CCNC(C)=O)ccc2N2CCCCC2)cc1` the value was -5.15%; for `Cc1cccc(CSc2nc(N)c(C#N)c(-c3cccs3)c2C#N)c1`, -13.3%; for `Cc1ccc(O)c(-c2cc(C(=O)NCc3ccc4c(c3)OCO4)[nH]n2)c1`, 7.09%. For the compound `Cn1cccc1C(=O)NC(=O)CSc1cccc[n+]1[O-]`, the “hERG current change (%, negative = inhibition) at 1uM” value was determined as 10.2%. In the case of `Cc1cc(OCC(=O)O/N=C(\N)Cc2cccs2)ccc1Br`, the “hERG current change (%, negative = inhibition) at 1uM” value is reported as 14.9%. As for `O=C(CN1CCN(Cc2cccc(Cl)c2)C1=O)NCc1cccs1`, the “hERG current change (%, negative = inhibition) at 1uM” value is 1.35%.

Take `O=C(c1cccs1)N1CCN(C2CCN(Cc3ccccc3)CC2)CC1`: the “hERG current change (%, negative = inhibition) at 1uM” value is reported as -27.3%.

For the compound `COc1ccc(CC(=S)N2CCOCC2)cc1F`, the “hERG current change (%, negative = inhibition) at 1uM” value was found to be 0.485%.

With `Brc1ccc(-c2ccc(CNCc3ccccn3)o2)cc1.Cl`, the “hERG current change (%, negative = inhibition) at 1uM” value stood at 12.3%. With `COc1ccccc1C1CC(=O)NC(C)=C1C(=O)OC(C)C` (stereo not shown), the “hERG current change (%, negative = inhibition) at 1uM” value stood at 3.91%. Next, `Cc1ccc(-c2cc(N)n(-c3ccc(F)cc3)n2)cc1`: 4.15%. For `CCOc1nc(-c2ccc(C)cc2)ccc1-c1noc(COC)n1` the value was 9.68%; for `Cc1ccc(CN(CC(=O)NC2CCCC2)C(=O)c2csnn2)cc1`, 11.9%; for `CC1CC(C)(C)N2C(=O)C3(Nc4ccccc4S3)c3cccc1c32` (stereo not shown), 21.5%. As to `O=C(Nc1ccc(Cl)cc1)c1ccc2ncsc2c1`, the “hERG current change (%, negative = inhibition) at 1uM” value came to 13.2%. In the case of `COc1ccc(CCN(C(=O)/C=C/C(=O)O)C2CC(=O)N(c3ccccc3)C2=O)cc1` (stereo not shown), the “hERG current change (%, negative = inhibition) at 1uM” value is recorded as 8.45%.

As for `CCOc1ccc(C(C)=O)cc1COc1ccc(C)nc1[N+](=O)[O-]`, the “hERG current change (%, negative = inhibition) at 1uM” value was determined as 10.6%. For the compound `CC(C)(C)OC(=O)N1CC2Cc3[nH]c(=O)ccc3C(C2)C1` (stereo not shown), the “hERG current change (%, negative = inhibition) at 1uM” value is 7.84%. For `CC(C)(C)NC(=O)NC(=O)COC(=O)C1CCN(S(=O)(=O)c2cccs2)CC1` the value was 8.63%; for `CCOc1ccc(C(C)NC(=O)C2CCCC2)cc1` (stereo not shown), 12.5%.

In the case of `Cc1ccc2ccc(C3C(=O)c4ccccc4C3=O)nc2c1`, the “hERG current change (%, negative = inhibition) at 1uM” value was 15%. Regarding `CCCCn1c(C23CC4CC(CC(C4)C2)C3)n[nH]c1=S`, the “hERG current change (%, negative = inhibition) at 1uM” value stood at 14.3%. For `N#CC1=C2N=C(N)c3ccccc3N2C2=C(C(=O)CCC2)C1c1ccc(Cl)cc1` (stereo not shown) the value was 1.04%; for `COC(=O)c1cccc(OCC(O)Cn2ccnc2)c1` (stereo not shown), 0.869%. For `NC(=O)C1CC=CCC1C(=O)OCC(Cl)=C(Cl)Cl` (stereo not shown) the value was 25%; for `Cc1cc(OCC(=O)NCc2cccnc2)c2c(C)c(Cc3ccccc3)c(=O)oc2c1`, -1.63%; for `Cc1ccc(S(=O)(=O)N2CCCCC2)cc1NC(=O)c1ccc2c(=O)n3c(nc2c1)CCCCC3`, -14.6%. Regarding `C=CCn1c(SCc2cc(=O)n3ccsc3n2)nc2scc(C3CC3)c2c1=O`, the “hERG current change (%, negative = inhibition) at 1uM” value is recorded as 4.18%. With `COC(=O)CNC(=O)COC(=O)c1cc(Cl)cc(Cl)c1N`, the “hERG current change (%, negative = inhibition) at 1uM” value was determined as 5.66%. For `CCn1c(CNC(=O)c2ccco2)nnc1SCC(=O)Nc1cccc(F)c1`, the “hERG current change (%, negative = inhibition) at 1uM” value worked out at 0.364%.

Take `CC(=O)c1c(C)nn(C(C)CC(=O)O)c1C` (stereo not shown): the “hERG current change (%, negative = inhibition) at 1uM” value stood at 3.06%. In the case of `COC(=O)c1c(NC(=O)c2ccco2)sc(C(=O)Nc2ccc(F)cc2)c1C`, the “hERG current change (%, negative = inhibition) at 1uM” value stood at 7.56%. For `CC(=O)Nc1ccc(C(=O)OCC(=O)N(C)C2CCCCC2)cc1`, the “hERG current change (%, negative = inhibition) at 1uM” value worked out at 11.6%. For `CCC(C)C1=CC(=Nc2c(C)n(C)n(-c3ccccc3)c2=O)C=C(C(C)CC)C1=O` (stereo not shown) the value was 12.5%; for `CC(C)N(Cc1ccccc1)C(=O)CSc1nccn1C`, 11%. In the case of `CCCC(=O)N1c2ccccc2[C@@H](N(C(C)=O)c2ccccc2)C[C@H]1C`, the “hERG current change (%, negative = inhibition) at 1uM” value worked out at 8.99%. `O=C(CSc1n[nH]c(=O)[nH]c1=O)Nc1ccc(Br)cc1Br`: the “hERG current change (%, negative = inhibition) at 1uM” value was 8.17%. For `Cc1cc(C)c(C(=O)O)c(Cl)n1`, the “hERG current change (%, negative = inhibition) at 1uM” value was found to be 8.85%. Next, `O=C(CS(=O)(=O)Cc1ccccc1)Nc1nc2c(s1)CCCC2`: 3.41%. As for `CC(/C=C1\SC(=S)N(NC(=O)c2ccc(O)cc2)C1=O)=C\c1ccccc1`, the “hERG current change (%, negative = inhibition) at 1uM” value is 0.121%.

Take `COc1cccc2cc(C(=O)NCc3ccccc3Cl)c(=O)oc12`: the “hERG current change (%, negative = inhibition) at 1uM” value came out at 12.5%.

Consider `Cc1onc(-c2c(Cl)cccc2Cl)c1C(=O)Nc1ccc(N2CCOCC2)cc1`, for which the “hERG current change (%, negative = inhibition) at 1uM” value is listed as 9.99%.

Take `C/C(=N\NC(=O)c1cccs1)c1ccc(C(=O)O)s1`: the “hERG current change (%, negative = inhibition) at 1uM” value came to 19.7%. Next, `Nc1cccc(C(=O)Nc2ccco2)c1`: -3.67%; `CSc1nnnn1-c1c(C)cccc1C`: 12.5%; `COc1cccc(C2C3=C(N=c4s/c(=C\c5cccc(O)c5)c(=O)n42)c2ccccc2CC3)c1OC` (stereo not shown): 17.2%. With `Cn1ccc2ccc(C3=CC(=O)C[C@H](c4ccc(F)cc4)C3)cc21`, the “hERG current change (%, negative = inhibition) at 1uM” value worked out at 4.22%. As for `COC(C[C@@H]1O[C@H]1C(=O)[C@@H](C)OCc1ccccc1)OC`, the “hERG current change (%, negative = inhibition) at 1uM” value turned out to be 15.5%. Next, `C=CCOC(=O)c1ccc(N2CCN(c3ccccc3)CC2)nc1`: 16.1%; `CCCC(=O)Nc1ccc(-c2cn3cccnc3n2)cc1`: 16.4%.

As to `CC(=O)CCc1ccc(OCCCOc2cccc3cccnc23)cc1`, the “hERG current change (%, negative = inhibition) at 1uM” value came out at 9.3%. For `CCOC(=O)C1=C(C)NC(=S)N(C=O)C1c1ccccc1` (stereo not shown) the value was 22.3%; for `CCn1cc(C(=O)NCc2ccco2)c(=O)c2ccc(C)nc21`, 12.7%; for `C=CCNC(=O)/C(C#N)=C/c1ccc(OS(=O)(=O)c2ccc(C)cc2)c(OC)c1`, 14.4%.

Turning to `O=C(NCc1ccco1)/C(=C/c1cccnc1)NC(=O)c1cccc(Br)c1`, the “hERG current change (%, negative = inhibition) at 1uM” value is listed as -13.2%. Next, `CCC1CCCCN1CCCNC(=O)c1cc2c(Cl)nc3ccccc3c2s1` (stereo not shown): -49.5%. For `CC(=O)c1cccc(NC(=O)COc2ccc(S(=O)(=O)N3CCOCC3)cc2)c1` the value was 3.97%.

The values above are taken from paper PMC4336329 (PLoS ONE, 2015).
